# Reference: the supplement of paper PMC11417369
# This is one part of the list.
# System: PfAP2-HC AP2 domain (GST-tagged)
# Assay: gcPBM binding intensity (ln(normalized median fluorescence intensity)); higher = stronger DNA binding
# How it was run: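 The binding buffer was 1× PBS containing 1% milk, 0.2 mg/ml BSA, 0.5% salmon testes DNA and 0.03% Triton X-100. In it, GST-tagged P. falciparum DNA-binding domains expressed in E. coli were applied for 1 h to an Agilent 4 × 180k array of primer-extended double-stranded 36-bp intergenic genomic probes plus negative controls. Binding intensity, read with Alexa488 anti-GST antibody and a 488 nm scan, is the highest Masliner-normalised natural-log median intensity across replicate spots of either probe orientation.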
row,Sequence,gcPBM binding intensity (ln)
1,AAAAAAAAATAATATTGTACACACATAAATTCTTTG [XGTACX_site4315],9.78
2,GTGTATTTTCTGCGCACACACATGCAAAAAGAAATA [CACACA_site1148],10.1
3,GTTTTATTAAAAATGTGTACTTAATTATGAAAAAAA [XGTACX_site4689],9.34
4,TATATTTACATTGTAACACACATGAAATATATATAT [CACACA_site61],9.79
5,TGTTGTAAATATGTTTGTACATAAATATATTATTTA [XGTACX_site5442],9.67
6,TATTGTTTTGATTGATGTACATGTTTAAAATATATA [XGTACX_site8430],9.6
7,TAATCTATTTATATGTGTACCTATTTAGAAATGACA [XGTACX_site5709],9.39
8,AAAGTAAATTTAAGCACACACAACGAACTTTTATAC [CACACA_site7008],10.3
9,AAGAAAAAATATAATAATAATAAAATATATATAATA [TGCATGCA_negctrl_site475],9.69
10,TTTGTTTTTCATAGTGCACACATAACCAAAAATAGT [CACACA_site9030],9.72
11,CAAATACATAGACACACACACATATACATATTTATA [CACACA_site7610],10.4
12,TTTATATTTAAATGCATGCACTTTCTATTTTTTTTT [GTGCAC_site9959],9.99
13,TATTTGATAAATTATACACACACAATATATATAAAA [CACACA_site8625],10.1
14,GAATAAAGGAGAGGCACACATATATATATATATATA [CACACA_site2452],9.75
15,GAGGATCATCAATTCACACACATAAAAATGAAGTTA [CACACA_site3078],9.76
16,TTCTTTTTAATGTCGGTGCAACTCCATAAAAACAAA [GTGCAC_site9488],9.33
17,CAATTTTCTAATGAAACATGCAAAATAAAATTTTAT [TGCATGCA_site13],9.33
18,CAACGATACAAAAAAGGTACACATATATATATATAT [XGTACX_site8688],9.78
19,TATATAAAATTCTATTGTACATGTTATACGAAAGAA [XGTACX_site5711],9.63

row,Sequence,gcPBM binding intensity (ln)
1,TTAATATAATTAAAATGTACTTATTTGTAAACATTA [XGTACX_site6313],9.39
2,TTTGTAGCACTTAAGAGTACAAAATGTATAAGATTT [XGTACX_site2321],9.55
3,GACCATGTTAACAAAGCATGCATCTCTATATGTTTA [TGCATGCA_site358],9.68
4,ACATAAAATAAATATACACACATATGTATATATCAT [CACACA_site7424],9.9
5,TTATTTTATAAATCGAAAACAAACAAAAAAAAGATA [XGTACX_negctrl_site178],9.63
6,TTGCTGTATTTATTTTGTACACATTTGGCATTATAT [XGTACX_site3408],9.89
7,AAAAAAAAAAGAAAGAGTACTTTTTCAATACATATA [XGTACX_site2468],9.34
8,AAGAAAAACAATACGTGTACCAAGCATCCTACTAAC [XGTACX_site6628],10.4
9,ATATACTATTATGTGTGTACATAATAATTTATTATA [XGTACX_site3776],9.75
10,TCATACATTTTCCTTGCACACATTTATAATTAATGG [CACACA_site4511],9.96
11,TAAAACAAAAAAAAGATGCACTATTTATTTTATTAT,9.53
12,AAAAAAATATATATATATATATATATATTATATATG [GTGCAC_negctrl_site654],9.48
13,TAATTATAGGTATACACACACATACATTTACATAAC [CACACA_site7509],10.7
14,TTTTATTATTTTTGTTGTACAGTATACTGTATGATT [XGTACX_site5359],9.69
15,AAAAAAAAGGAAAATAAAAATAAAAAAAAATAATAA [XGTACX_negctrl_site601],9.5
16,TGAGAAAAAAAGAATTGTACATATAAAATATAACAA [XGTACX_site3500],9.48
17,TTATCACATTATTGCACACACATAAAGAAAAAAATA [CACACA_site2841],9.94
18,AAAGATACTTTCCTCAAACACACAAAACTATACAAC [CACACA_site1475],9.91
19,AATAAAAAGAAACACACACACACACCCATATATATA [CACACA_site3589],11.5

row,Sequence,gcPBM binding intensity (ln)
1,ATATAAGAACAAAATTGTACATAAATATTTATATAA [XGTACX_site7404],9.78
2,TTTTTTGTTATTTTCCGTTTTTTTCCATTATAATTT [GTGCAC_negctrl_site461],9.85
3,TATTCAAAGAAAAACTGTACGTGTAGCCTACATCCT [XGTACX_site7707],9.46
4,ACGTTAAAAACAAGTTGTACACAATAAATTATTCTT [XGTACX_site6321],9.75
5,TATATATATATATGTAGTACTTTACAAAATAATTCG [XGTACX_site5322],9.59
6,TTTATATTTATGTAGGTGCATTTGTTTACAACATAT [GTGCAC_site9511],9.75
7,TTATTTATACGCTATGAGTTTGATACAAACAATTAA [XGTACX_negctrl_site456],9.56
8,TTTTTACGGAATTAGAGAAAAGAAATAAAAAAAAAA [XGTACX_negctrl_site436],9.14
9,TAGTTATCACATTGCACACACATTTCCTTTTACATT [CACACA_site7589],10.2
10,GCATAACCTTTATATTGTACATATACCTTTATTGTT [XGTACX_site6046],10.2
11,AATAAATTCATGATAGTGCAAAAATTATTTTTGTTA,9.66
12,AAAGATGATAAAATATGTACACACAGTTTATACATT [XGTACX_site8703],9.95
13,TGAGTCTTTTACATTGCACACACATTTCTTTCCTTT [CACACA_site8978],10.3
14,ATTATCCATCAAAAGGTGCAAATTTTTAATTATAAA [GTGCAC_site9932],9.49
15,ATATATGTATATATGTACATGAATATATAAAGAAAA [CACACA_negctrl_site315],9.99
16,GTTTATATTTAATTTTTTTGTTTTTTTGTGTAATTC [XGTACX_negctrl_site194],9.66
17,TATTTATACTAATATGCATGTAATCGAAATACAGCT [TGCATGCA_site457],9.6
18,ACAAATAAATAAATATGTACTTAATTATATAATTGA [XGTACX_site5626],9.5
